According to PubChem BioAssay AID1347165 (National Center for Advancing Translational Sciences (NCATS), 2019):
Screen size: about 220,000 compounds; about 5,700 (2.6%) were called active. This list was built around the results that the source calls inconclusive (neither active nor inactive); the mix of calls is not that of the screen. Calls come from the whole dose curve; as a rule, active = well fitted inhibition curve with a large enough effect; inconclusive = small, poorly fitted or top-dose-only effect; inactive = no such curve, though single readings can be large or run the other way. Potencies of inconclusive entries are doubtful fits and often do not repeat.

target: Lysine-specific demethylase 5B (Homo sapiens) (UniProt Q9UGL1); assay: Primary screen for KDM5B Histone Demethylases FDH-coupled qHTS; settings: FDH-coupled NADH fluorescence (FDH is formaldehyde dehydrogenase); series mostly up to 57.7 µM; note: nearly all actives have a fitted effect of over 70% in size
Summary of the method: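 Compound dilutions met 200 nM (final) KDM5BΔAP for 10 min at room temperature before substrate addition. The substrate mix held 12.5 µM H3K4me3 with cofactors 25 µM α-ketoglutarate and 50 µM Fe²⁺. NADH signal gain over 30 min defined activity.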
Potency is the fitted concentration of half-maximal effect; tags give direction and shape of the fitted curve.

UniProt Q9UGL1, sequence (Q9UGL1 whole entry, looked up): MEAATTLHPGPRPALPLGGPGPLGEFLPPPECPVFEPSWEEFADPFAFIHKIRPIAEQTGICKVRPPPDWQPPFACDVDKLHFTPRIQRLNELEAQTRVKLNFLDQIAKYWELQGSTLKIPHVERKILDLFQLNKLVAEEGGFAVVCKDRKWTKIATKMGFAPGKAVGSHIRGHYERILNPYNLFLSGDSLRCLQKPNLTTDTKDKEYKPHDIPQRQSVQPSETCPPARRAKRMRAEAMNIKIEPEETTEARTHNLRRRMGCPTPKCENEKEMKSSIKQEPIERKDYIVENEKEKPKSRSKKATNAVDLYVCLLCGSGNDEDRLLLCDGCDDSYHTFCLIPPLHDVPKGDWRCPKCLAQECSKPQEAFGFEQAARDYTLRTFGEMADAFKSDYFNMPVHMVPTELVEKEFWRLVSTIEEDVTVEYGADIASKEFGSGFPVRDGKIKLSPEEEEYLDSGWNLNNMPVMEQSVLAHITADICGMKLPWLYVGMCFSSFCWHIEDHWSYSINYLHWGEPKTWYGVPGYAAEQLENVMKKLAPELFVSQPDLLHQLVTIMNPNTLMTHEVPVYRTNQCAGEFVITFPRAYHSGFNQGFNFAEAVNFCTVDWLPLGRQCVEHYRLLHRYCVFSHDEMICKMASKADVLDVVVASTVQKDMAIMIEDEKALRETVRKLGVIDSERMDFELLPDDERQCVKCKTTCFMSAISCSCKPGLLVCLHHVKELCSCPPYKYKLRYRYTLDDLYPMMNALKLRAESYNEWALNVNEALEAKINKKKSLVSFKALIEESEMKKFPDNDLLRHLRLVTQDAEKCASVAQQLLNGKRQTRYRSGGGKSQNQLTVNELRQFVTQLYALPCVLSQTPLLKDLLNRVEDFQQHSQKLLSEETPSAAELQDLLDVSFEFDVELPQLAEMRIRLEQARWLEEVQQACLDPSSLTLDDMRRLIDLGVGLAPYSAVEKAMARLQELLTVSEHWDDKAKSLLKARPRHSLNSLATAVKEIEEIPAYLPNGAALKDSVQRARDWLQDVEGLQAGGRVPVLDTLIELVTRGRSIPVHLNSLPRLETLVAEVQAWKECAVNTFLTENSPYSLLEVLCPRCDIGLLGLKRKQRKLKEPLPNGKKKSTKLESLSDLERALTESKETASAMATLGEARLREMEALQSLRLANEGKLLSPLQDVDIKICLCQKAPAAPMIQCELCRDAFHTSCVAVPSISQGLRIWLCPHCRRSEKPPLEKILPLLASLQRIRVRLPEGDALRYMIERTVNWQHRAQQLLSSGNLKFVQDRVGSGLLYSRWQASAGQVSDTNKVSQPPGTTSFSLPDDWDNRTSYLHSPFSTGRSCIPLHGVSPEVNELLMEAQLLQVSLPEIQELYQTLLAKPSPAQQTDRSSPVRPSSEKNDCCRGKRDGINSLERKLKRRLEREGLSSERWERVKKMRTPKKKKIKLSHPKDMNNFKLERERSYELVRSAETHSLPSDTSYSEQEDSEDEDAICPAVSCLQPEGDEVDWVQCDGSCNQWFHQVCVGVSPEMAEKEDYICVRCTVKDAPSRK

Structure (SMILES)	Potency
CCN(C(=O)CN1CC=C(c2ccccc2)CC1)C1CCS(=O)(=O)C1 (stereo not given)	inconclusive: 28.2 µM [inhibitor, single point]
COc1cc(/C=C(\C)[N+](=O)[O-])c(OC)c2c1OCO2	inconclusive: 31.6 µM [inhibitor, partial curve, poor fit]
Cc1ccccc1-c1ccc2n(c1=O)C[C@H]1C[C@@H]2CN(C(=O)NC2CCCCC2)C1	active: 35.5 µM
CN1CC2(Cc3c1ccc1ccccc31)C(=O)NC(=O)N(CCc1ccccc1)C2=O (stereo not given)	inconclusive: 17.8 µM [inhibitor, partial curve, poor fit]
C=CCn1c(O)c(C(CC)=Nc2ccc(C(=O)O)cc2)c(=O)[nH]c1=O	inconclusive: 39.8 µM [inhibitor, single point]
O=C(NC1CCCCC1)N1C[C@@H]2C[C@H](C1)c1c(-c3cccs3)ccc(=O)n1C2	inconclusive: 28.2 µM [inhibitor, single point]
CCNC(=O)NC[C@H]1C[C@@H]2CCN1C[C@@H]2c1cc(-c2ccc(OC)c(OC)c2)nc(C)n1	active: 17.8 µM
O=[N+]([O-])c1ccc(NCCNS(=O)(=O)c2ccccc2)c2ncccc12	inactive
CN1CCN(c2oc(-c3ccc(COc4ccccc4)o3)nc2C#N)CC1	inconclusive: 22.4 µM [inhibitor, partial curve, poor fit]
O=C(c1cn(Cc2ccccc2)c2ccccc12)N1CCC(C(=O)N2CCCCC2)CC1	inactive
COc1ccccc1-c1cc([C@H]2CN3CC[C@H]2C[C@@H]3CNC(=O)c2ccco2)nc(C)n1	active: 31.6 µM
CN1CCN(C(=O)Cc2c[nH]c3ncc(-c4cccc(O)c4)cc23)CC1	inactive
Cc1nc(-c2cccs2)cc([C@H]2CN3CC[C@H]2C[C@@H]3CNC(=O)c2ccc(N(C)C)cc2)n1	inactive
O=C(Nc1ccccc1)Nc1ccc2n(c1=O)C[C@H]1C[C@@H]2CN(C(=O)c2ccccc2)C1	inconclusive: 39.8 µM [inhibitor, partial curve, poor fit]
COc1ccc2c(c1)C1(CCN(C(=O)Nc3ccc(OC)c(OC)c3)C1)C(=O)N2 (stereo not given)	inactive
CNCc1ccc2c(c1)OCO2	inconclusive: 28.2 µM [inhibitor, partial curve]
CNCc1cccnc1	inconclusive: 11.2 µM [inhibitor, partial curve, poor fit]
COC(=O)c1ccc(C2SCC(=O)Nc3n[nH]c(C)c32)cc1 (stereo not given)	inactive
COc1cc2c(cc1-c1ccc(O)c(F)c1)NC(=O)C21CCN(C(C)=O)CC1	inconclusive: 22.4 µM [inhibitor, partial curve, poor fit]
Cc1[nH]c2c(C)cccc2c1C(O)CN1CCCCC1 (stereo not given)	inactive
O=C(Nc1ccc2c(c1)OCCO2)N1[C@H]2CC[C@@H]1c1cncnc1C2	inactive
Nc1cccc(-c2cn(C[C@H]3CC4CCN3C[C@@H]4C(=O)NC3CCCCC3)nn2)c1 (stereo not given in full)	inactive
CCOCC(=O)N1CCC2(CC1)c1nccn1-c1ccccc1CN2C	inactive
COc1ccc(CN2C(=O)NC(=O)/C(=C/c3ccc([N+](=O)[O-])s3)C2=O)cc1	inconclusive: 14.1 µM [inhibitor, partial curve, poor fit]

Structure (SMILES)	Potency
CC(Cc1ccccn1)N(C)Cc1ccc(S(C)(=O)=O)cc1 (stereo not given)	inconclusive: 35.5 µM [inhibitor, single point]
COc1ccc(NC(=O)OC[C@H]2C[C@@H]3CCN2C[C@@H]3c2cc(C3CCCC3)nc(-c3ccncc3)n2)cc1	inconclusive: 31.6 µM [inhibitor, single point]
Nc1c(C(=O)Nc2ccc(Br)cc2F)sc2nc3c(cc12)N1CCC3CC1	inconclusive: 1.58 µM [inhibitor, full curve, poor fit]
CN1CCN(C(=O)Cc2c[nH]c3ncc(-c4ccc(Cl)cc4)cc23)CC1	active: 31.6 µM
CC(=O)c1ccc(NC(=O)NC[C@H]2C[C@@H]3CCN2C[C@@H]3c2cc(-c3ccco3)nc(C)n2)cc1	inactive
CC(C)CN1CCN(c2ccc(Cl)nn2)C(=O)C1	inactive
O=C(c1ccc(F)cc1)N1C[C@@H]2C[C@H](C1)c1c(-c3ccc(Cl)cc3)ccc(=O)n1C2	inactive
OCC1CN(c2ncccn2)CC12CCNCC2 (stereo not given)	active: 31.6 µM
O=C1CO[C@H]2CN(Cc3ncc[nH]3)C[C@H]2N1Cc1cccnc1	active: 25.1 µM
COc1ccccc1NC(=O)N1C[C@@H]2C[C@H](C1)c1c(-c3cccs3)ccc(=O)n1C2	inactive
Nc1c(C(=O)Nc2ccc(Cl)cc2)sc2nc3c(cc12)N1CCC3CC1	inconclusive: 35.5 µM [inhibitor, partial curve, poor fit]
CCCCNC(=O)CN1CC=C(c2ccc(O)cc2)CC1	inconclusive: 31.6 µM [inhibitor, single point]
O=C(O)C1=NOC2CN(Cc3ccccn3)CC12 (stereo not given)	inconclusive: 112 µM [inhibitor, partial curve, poor fit]
CC[C@H]1CN2CC[C@H]1C[C@@H]2CNC(=O)Nc1ccc(Oc2ccccc2)cc1	inconclusive: 28.2 µM [inhibitor, single point]
COc1cc2c(cc1Oc1cccc(N(C)C)c1)NC(=O)C21CCN(C(=O)CN2CCOCC2)CC1	inactive
O=C(O)COCC(=O)N1C[C@@H]2C[C@H](C1)c1ccc(-c3cc4ccccc4s3)c(=O)n1C2	inconclusive: 31.6 µM [inhibitor, partial curve, poor fit]
COc1ccc(-c2cc([C@H]3CN4CC[C@H]3C[C@@H]4COC(=O)NC(C)C)nc(C)n2)cc1	active: 28.2 µM
OCCSCCSCCO	inactive
CCc1noc(C(C)N2CCN(C(=O)Cc3ccc(C)cc3)CC2)n1 (stereo not given)	inactive
Cn1nc(C2CCCCC2)cc1[C@H]1CN2CC[C@H]1C[C@@H]2CNC(=O)NCc1ccccc1	inactive
O=[S+]1([O-])NC2(CCN(Cc3ccncc3)C2)COc2ccncc21 (stereo not given)	active: 39.8 µM
Cc1nc(-c2ccccc2Br)cc([C@H]2CN3CC[C@H]2C[C@@H]3CNC(=O)NC2CCCCC2)n1	inconclusive: 22.4 µM [inhibitor, single point]
CN1CCN(C(=O)Cc2c[nH]c3ncc(-c4ccc(F)c(Cl)c4)cc23)CC1	active: 39.8 µM
COc1ccc(/C=C/[N+](=O)[O-])cc1OC	inconclusive: 25.1 µM [inhibitor, partial curve, poor fit]

Structure (SMILES)	Potency
CC(=O)c1ccc(NC(=O)NC[C@H]2C[C@@H]3CCN2C[C@@H]3CN(C)Cc2ccccc2)cc1	inconclusive: 50.1 µM [inhibitor, partial curve, poor fit]
Cc1ccc(-n2nc(C)c3c2NC(=O)CSC3c2ccc(O)cc2)cc1Cl (stereo not given)	inconclusive: 28.2 µM [inhibitor, partial curve, poor fit]
O=C(Cc1c[nH]c2ccccc12)N1CCN(CC(=O)N2CCCCCC2)CC1	inactive
COc1ccc(-c2cc3ccc(OC(=O)N(C)C)cc3oc2=O)cc1	inconclusive: 1.78 µM [inhibitor, full curve, poor fit]
N#Cc1ccc(C(=O)N2C[C@@H]3C[C@H](C2)c2c(-c4cccs4)ccc(=O)n2C3)cc1	inactive
CC[C@H]1CN2CC[C@H]1C[C@@H]2CN(Cc1ccc(SC)cc1)Cc1ccc(SC)cc1	inconclusive: 31.6 µM [inhibitor, single point]
CCOP(=O)(OCC)C(Cc1ccccc1)NC(C)=O (stereo not given)	inconclusive: 39.8 µM [inhibitor, partial curve, poor fit]
COc1cc2c(cc1CCc1ccccc1)N([S+](=O)([O-])c1cn(C)cn1)CC21CCN(C(C)=O)CC1	inconclusive: 17.8 µM [inhibitor, partial curve]
CN1CCNc2cc(Nc3ccc(F)cc3)ncc2C1	inconclusive: 35.5 µM [inhibitor, single point]
CCn1nccc1C(=O)N1[C@H]2CC[C@@H]1c1cnc(-c3ccc(F)cc3)nc1C2	inactive
Cc1ccc(-n2nc(C)c3c2NC(=O)CSC3c2ccsc2)cc1 (stereo not given)	inactive
O=C1NC2(CCN(Cc3ccccn3)C2)Oc2ccccc21 (stereo not given)	inactive
COc1ccc2c(c1)c(C(=O)NC(C)CCC(C)C)c(C)n2C1CC1 (stereo not given)	inactive
CC(=O)c1c(C)[nH]c(C(=O)C(C)NC(C)c2ccc(Cl)cc2Cl)c1C (stereo not given)	inactive
CN(N)N=Nc1nc2c([nH]1)c(=O)n(C)c(=O)n2C	inconclusive: 31.6 µM [inhibitor, single point]
CNc1nc(N2C[C@H]3CN(CCOC)C[C@@]3(C(=O)O)C2)ncc1F	active: 15.8 µM
Cc1ccc(C(=O)NC[C@H]2C[C@@H]3CCN2C[C@@H]3c2cc(C3CCCCC3)nn2C)cc1	inactive
O=C(NCC[C@@H]1C[C@@H]2C=C[C@H]1C2)c1cn(Cc2ccccc2Cl)nn1	inactive
CCC(C)n1c(O)c(/C=N/Nc2nc3c(c(=O)n(C)c(=O)n3C)n2C)c(=O)[nH]c1=S (stereo not given)	inconclusive: 31.6 µM [inhibitor, partial curve, poor fit]
CCCS(=O)(=O)N1C[C@@H]2C[C@H](C1)c1c(-c3ccc(Cl)cc3)ccc(=O)n1C2	inconclusive: 35.5 µM [inhibitor, single point]
Cc1cccn2c(=O)c3c(nc12)N1CCCCC1C1(C3)C(=O)N(C)C(=O)N(C)C1=O (stereo not given)	inconclusive: 20 µM [inhibitor, single point]
COc1ccc([C@@H]2CN(c3nccc(C)n3)[C@@H]3C4CCN(CC4)[C@@H]32)cc1	active: 14.1 µM
